This note sets out measurements from PubChem BioAssay AID687022 (Broad Institute, 2013).

Among all 1,000 compounds or so, about 360 (36%) were called active.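 How the source made its calls: active means Fitted curve of melting temperature shift crosses the 1.0 threshold at or below the sample's highest valid tested concentration; inconclusive means Flat fit with activity 30 to 70, or invalid fit; inactive means Opposite direction, flat within 30, or no crossing.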 The list lacks most of the strong results.

For the assay, the target named is Fibroblast growth factor 22 (Homo sapiens) (UniProt Q9HCT0). As to the kind of experiment: FGF22 ligand-induced thermal stabilization – biophysical, thermal shift, cherry-pick, FGF22 synaptogenesis inhibitor project, dose response (AID 687022). Further: reference of the scale not given here. The conditions noted are these: recombinant FGF22 thermal shift, SYPRO orange melting; at 38 µM (top of the series) unless noted.
UniProt Q9HCT0, sequence (Q9HCT0 whole entry, looked up): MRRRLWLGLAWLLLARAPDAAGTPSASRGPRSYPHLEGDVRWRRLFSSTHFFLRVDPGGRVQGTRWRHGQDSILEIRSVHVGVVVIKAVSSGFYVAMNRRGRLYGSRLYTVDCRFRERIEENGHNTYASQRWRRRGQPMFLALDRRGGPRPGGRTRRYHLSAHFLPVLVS
As to `O=C(N[C@@H]1C=C[C@@H](CC(=O)N2CCCCC2)O[C@@H]1CO)c1cccc(F)c1`, the Tm shift activity was inactive: -0.288% [at 42 µM].
As to `CCC(=O)N1[C@H](CO)[C@@H](c2ccccc2)C12CN(C(=O)c1cnccn1)C2`, the Tm shift activity was inactive: -0.156%.
In the case of `CO[C@H]1CN(C)C(=O)c2cc(NS(=O)(=O)c3ccc(C)cc3)ccc2OC[C@@H](C)N(C(=O)NC(C)C)C[C@@H]1C` it was inactive: -0.312%; in that of `O=C(COC(=O)c1ccccc1Br)NCCC1=CCCCC1`, inactive: -0.363%; in that of `COc1ccc(S(=O)(=O)Nc2cc3c4c(c2)CCN4C(=O)CC3)cc1OC`, inactive: -0.179%.
Under `CC(=O)N1[C@@H](CO)[C@@H](c2ccccc2)C12CN(C(=O)c1ccccn1)C2` stands inactive: 0.134% [at 42 µM].
In the case of `Cc1ccccc1-n1ncc2c1CC(C)(C)CC2NC(=O)C1CCC1` (stereo unspecified) it was inactive: 0.1%; in that of `O=S(=O)(Nc1ccccc1OC(F)F)c1ccc(S(=O)(=O)N2CCCC2)cc1`, inactive: -0.024%.
On to `CNC(=O)C[C@@H]1CC[C@@H]2[C@H](COc3ccc(NC(=O)c4cccc(F)c4)cc3C(=O)N2C)O1`, for which the Tm shift activity was inactive: 0.042%.
On to `O=C(NC1CCCCC1)c1cc(-c2cccc(Cl)c2)on1`, for which the Tm shift activity was inactive: -0.21%.
For `COc1ccccc1-c1cccc(-c2nc(C(=O)NCc3ccncc3)cc3c2[C@@H](CCO)N([S@](=O)C(C)(C)C)C3)c1`, the Tm shift activity is inactive: 0.136%.
Turning to `Cc1ccc(S(=O)(=O)NCCSc2nnnn2-c2ccccc2)cc1`, the Tm shift activity is inactive: -0.636%.
`C/C=C/c1cnc2c(c1)C(=O)N([C@@H](C)CO)C[C@H](C)[C@@H](CN(C)C(=O)c1ccc3c(c1)OCO3)O2`: the Tm shift activity is inactive: 0.061%.
For `Cc1ccc(S(=O)(=O)Nc2ccc3c(c2)C(=O)N([C@@H](C)CO)C[C@H](C)[C@@H](CN(C)CC2CCCCC2)O3)cc1`, the Tm shift activity was inactive: -0.147% [at 42 µM].
With `Oc1ccc(-c2cnc3ccccc3n2)cc1`, the Tm shift activity is inactive: 0.065%.
`Cc1cc(C)cc(C(=O)NCC(=O)N2CCN(c3cccc(Cl)c3)CC2)c1`: the Tm shift activity is inactive: -0.367%.
On to `COc1ccc(S(=O)(=O)N[C@@H]2C=C[C@H](CC(=O)NCCc3ccccc3)O[C@@H]2CO)cc1`, for which the Tm shift activity is inactive: 0.685% [at 42 µM].
`CC(C)N(C[C@H]1N[C@H](CO)[C@H]1c1ccccc1)S(=O)(=O)c1ccccc1`: the Tm shift activity is inactive: -0.678% [at 42 µM].
Take `COc1cc(C)c2c(c1C=O)Oc1c(c(C)c(O)c3c1C(O)OC3=O)OC2=O` (stereo unspecified): the Tm shift activity was inactive: 0.913% [at 5 µM].
On to `N#C[C@@H]1[C@H](c2ccc(-c3cccnc3)cc2)[C@H](CO)N1C(=O)Nc1ccc(F)cc1`, for which the Tm shift activity was inactive: -0.106% [at 42 µM].
Turning to `Cc1ccccc1NCC(=O)N/N=C\C=C\c1cccc([N+](=O)[O-])c1`, the Tm shift activity was inactive: -0.039%.
With `COc1ccc(S(=O)(=O)N/N=c2\oc3c(OC)cccc3cc2S(=O)(=O)c2ccc(C)cc2)cc1OC`, the Tm shift activity was inactive: 0.599%.
Take `COc1ccc(NC(=O)N(C)C[C@@H]2Oc3ccc(NS(=O)(=O)c4ccc(OC)cc4)cc3CC(=O)N([C@H](C)CO)C[C@@H]2C)cc1`: the Tm shift activity is inactive: 0.038%.
Take `Cc1ccc(-c2nnn(CC(=O)NCCc3ccc4c(c3)OCO4)n2)cc1`: the Tm shift activity was inactive: -0.159%.
On to `C[C@H](O)C#Cc1ccc2c(c1)O[C@H](CN(C)C(=O)Cc1ccccn1)[C@@H](C)CN([C@H](C)CO)S2(=O)=O`, for which the Tm shift activity was inactive: -0.188%.
Regarding `COCC(=O)Nc1ccc2c(c1)OC[C@@H](C)N(C)C[C@H](C)[C@@H](OC)CN(C)C2=O`, the Tm shift activity is inactive: 0.133%.
In the case of `O=C(NCCc1c[nH]c2ccccc12)C(=O)NCC1CCCO1` (stereo unspecified) it was inactive: -0.006%; in that of `COc1cccc(C#Cc2ccc([C@H]3[C@@H](CO)N4C(=O)CN(C(=O)c5ccccc5)C[C@@H]34)cc2)c1`, inactive: -6.85% [at 42 µM].
For `COc1ccc(NC(=O)N(C)C[C@@H]2Oc3ccc(NC(=O)NC(C)C)cc3CC(=O)N([C@H](C)CO)C[C@@H]2C)cc1`, the Tm shift activity is inactive: 0.066%.
Consider `C[C@@H]1CCCCO[C@@H](CN(C)Cc2ccncc2)[C@H](C)CN([C@H](C)CO)C(=O)c2cc(NC(=O)Cc3ccccc3)ccc2O1`, for which the Tm shift activity was inactive: -0.052%.
`CCCNC(=O)COCc1cc(-c2ccc3c(c2)OCO3)on1`: the Tm shift activity is inactive: 0.027%.
In the case of `COCC(=O)Nc1ccc2c(c1)OC[C@H](C)N(C)C[C@@H](C)[C@@H](OC)CN(C)C2=O` it was inactive: -0.002% [at 42 µM]; in that of `O=c1c(Cl)c(O)c2cccc3c4ccccc4n1c23`, inactive: 0.165% [at 10 µM].
As for `N#C[C@H]1[C@H](c2ccccc2-c2ccccc2F)[C@@H](CO)N1C(=O)C1CCC1`, the Tm shift activity is inactive: -0.309% [at 42 µM].
In the case of `O=C(Cc1cccnc1)N[C@@H]1CC[C@@H](CCn2cc(-c3ccccc3F)nn2)O[C@@H]1CO` it was inactive: -0.139%.
For the compound `O=c1cc[nH]c2ccc(Cl)cc12`, the Tm shift activity was inactive: -0.177%.
On to `CC(=O)N1[C@H](CO)[C@@H](c2ccccc2)C12CN(C(=O)c1ccccn1)C2`, for which the Tm shift activity was inactive: -0.114% [at 42 µM].
On to `COc1cc2ccccc2cc1C(=O)OCC(=O)c1c(N)n(C)c(=O)n(C)c1=O`, for which the Tm shift activity is inactive: -0.061%.
As to `CC(C)C#Cc1cnc2c(c1)C(=O)N([C@@H](C)CO)C[C@@H](C)[C@@H](CN(C)C(=O)c1cnccn1)O2`, the Tm shift activity was inactive: -0.115% [at 42 µM].
As to `COc1ccc(C(=O)N=c2sc3ccccc3n2C)cc1OC`, the Tm shift activity is inactive: 0.139%.
`O=C(O)C1CSC2(CCN(Cc3ccccc3)CC2)N1` (stereo unspecified): the Tm shift activity is inactive: -0.082%.
With `CCCNC(=O)N1CC(=O)N2[C@H](C1)[C@@H](c1ccc(-c3cccc(C)c3)cc1)[C@@H]2CO`, the Tm shift activity is inactive: -0.204%.
As to `CC(C)N(Cc1ccccc1)C(=O)COC(=O)C1CCN(c2ccc(C(F)(F)F)cn2)CC1`, the Tm shift activity was inactive: 0.133%.
For `O=C(NC1CCCCC1)N1CC(=O)N2[C@H](CO)[C@H](c3ccc(-c4cccc(F)c4)cc3)[C@H]2C1`, the Tm shift activity was inactive: -1.26% [at 42 µM].
Take `CO[C@H]1CN(C)C(=O)c2cc(NC(=O)c3cccc(F)c3)ccc2OC[C@H](C)NC[C@@H]1C`: the Tm shift activity is inactive: -0.133%.
With `COCC(=O)N1CC2(C1)[C@H](c1ccc(-c3cccc(C)c3)cc1)[C@H](CO)N2C(=O)C1CC1`, the Tm shift activity was inactive: -0.472% [at 42 µM].
Under `O=C1C=CCCN1S(=O)(=O)/C=C/c1ccccc1` stands inactive: 0.169%; under `N#CCC(=O)Nc1ccc(C(=O)NCCc2c[nH]c3ccccc23)cc1`, inactive: -0.09% [at 10 µM].
With `O=C(Nc1ccccc1)Nc1ccc2nnsc2c1`, the Tm shift activity is inactive: -0.368%.
Regarding `O=C(c1cccc(NC2=NC3CS(=O)(=O)CC3S2)c1)N1CCN(c2ncccn2)CC1` (stereo unspecified), the Tm shift activity is inactive: -0.069%.
Turning to `O=C(c1ccc2c(c1)OCO2)N1CC(=O)N2[C@H](C1)[C@H](c1ccc(C#CCC3CCCC3)cc1)[C@@H]2CO`, the Tm shift activity is inactive: 0.635%.
Regarding `O=C1Cc2ccccc2C(=O)N1c1cccc(Cl)c1`, the Tm shift activity was inactive: 0.062%.
Regarding `NS(=O)(=O)c1cccc(NC(=O)c2ccc(NS(=O)(=O)c3cccc([N+](=O)[O-])c3)cc2)c1`, the Tm shift activity is inactive: -0.109%.
For the compound `Cc1ccc(S(=O)(=O)N[C@H]2C=C[C@H](CC(=O)N3CCc4ccccc4C3)O[C@H]2CO)cc1`, the Tm shift activity was inactive: -0.014% [at 42 µM].
Under `O=C(N/N=C/c1ccc(-c2cccc([N+](=O)[O-])c2)o1)c1ccc([N+](=O)[O-])cc1` stands inactive: 0.08%; under `COc1ccccc1-c1ccc2n(c1=O)C[C@@H]1[C@@H](CO)[C@H](C(=O)NC3CCC3)N(C(=O)NC(C)C)[C@H]21`, inactive: 0.104% [at 19.5 µM]; under `Nc1c(N(CCO)C(=O)COc2ccc(Cl)cc2)c(=O)[nH]c(=O)n1Cc1ccccc1`, inactive: -0.221%.
Under `Cc1ccc(-c2ccc([C@H]3[C@@H](CO)N4C(=O)CN(C(=O)c5ccc(F)cc5)C[C@@H]34)cc2)cc1` stands inactive: -2.35%.
With `COc1nc(-c2ccc(Cl)cc2)nnc1C`, the Tm shift activity is inactive: -0.19%.
Regarding `CC(C)C#Cc1cnc2c(c1)C(=O)N([C@@H](C)CO)C[C@H](C)[C@@H](CN(C)C(=O)c1cnccn1)O2`, the Tm shift activity is inactive: -0.02% [at 42 µM].
In the case of `Cc1c(/C=N\NC(=O)c2cccc(F)c2)cnn1C` it was inactive: -0.081%; in that of `C[C@@H]1CN([C@@H](C)CO)C(=O)c2cccc(NC(=O)C3CC3)c2O[C@H]1CN(C)Cc1ccncc1`, inactive: 0.078%; in that of `O=C(C[C@H]1CC[C@H](NC(=O)Nc2cc(F)ccc2F)[C@@H](CO)O1)Nc1ccc(-c2ccccc2)cc1`, inactive: 0.009% [at 42 µM].
For `N#CCc1nn(-c2ccccc2)c2ncnc(N)c12`, the Tm shift activity is inactive: -0.125%.
Turning to `COCC(=O)N1C[C@@H](C)[C@H](OC)CN(C)C(=O)c2ccc(NC(=O)NC(C)C)cc2OC[C@@H]1C`, the Tm shift activity is inactive: 0.42% [at 42 µM].
In the case of `Cc1ccc(S(=O)(=O)N[C@H]2C=C[C@@H](CC(=O)N3CCc4ccccc4C3)O[C@@H]2CO)cc1` it was inactive: 0.071%; in that of `COCC(=O)N1[C@H](CO)[C@H](c2ccccc2)C12CN(C(=O)c1ccccc1)C2`, inactive: 0.454% [at 42 µM].
In the case of `CCCCn1cnc2c(SCc3cccc(F)c3)nc(N)nc21` it was inactive: -0.433%; in that of `O=C(C[C@@H]1CC[C@@H](NC(=O)Nc2cc(F)ccc2F)[C@H](CO)O1)NCCCN1CCOCC1`, inactive: 0.042% [at 42 µM]; in that of `CC(=O)Oc1ccc(C(=O)Nc2ccccc2C(=O)N2CCCCC2)cc1`, inactive: -0.094%.
In the case of `COCCNC(=O)CCc1nnc2ccc(N3CCC(C)CC3)nn12`, the Tm shift activity is inactive: -0.14%.
